Results reported in PMC4336329 (PLoS ONE, 2015).
The whole screen tested about 310,000 compounds, of which about 2,200 (0.71%) showed an effect of 50% or more. Effects have a minus sign here. Some of the results follow.

Biological target: human ether-à-go-go-related gene (hERG) potassium channel (human, UniProt Q12809)
Test: primary screen, population patch clamp on CHO cells stably expressing hERG

Sequence of human ether-à-go-go-related gene (hERG) potassium channel (Q12809 whole entry, looked up): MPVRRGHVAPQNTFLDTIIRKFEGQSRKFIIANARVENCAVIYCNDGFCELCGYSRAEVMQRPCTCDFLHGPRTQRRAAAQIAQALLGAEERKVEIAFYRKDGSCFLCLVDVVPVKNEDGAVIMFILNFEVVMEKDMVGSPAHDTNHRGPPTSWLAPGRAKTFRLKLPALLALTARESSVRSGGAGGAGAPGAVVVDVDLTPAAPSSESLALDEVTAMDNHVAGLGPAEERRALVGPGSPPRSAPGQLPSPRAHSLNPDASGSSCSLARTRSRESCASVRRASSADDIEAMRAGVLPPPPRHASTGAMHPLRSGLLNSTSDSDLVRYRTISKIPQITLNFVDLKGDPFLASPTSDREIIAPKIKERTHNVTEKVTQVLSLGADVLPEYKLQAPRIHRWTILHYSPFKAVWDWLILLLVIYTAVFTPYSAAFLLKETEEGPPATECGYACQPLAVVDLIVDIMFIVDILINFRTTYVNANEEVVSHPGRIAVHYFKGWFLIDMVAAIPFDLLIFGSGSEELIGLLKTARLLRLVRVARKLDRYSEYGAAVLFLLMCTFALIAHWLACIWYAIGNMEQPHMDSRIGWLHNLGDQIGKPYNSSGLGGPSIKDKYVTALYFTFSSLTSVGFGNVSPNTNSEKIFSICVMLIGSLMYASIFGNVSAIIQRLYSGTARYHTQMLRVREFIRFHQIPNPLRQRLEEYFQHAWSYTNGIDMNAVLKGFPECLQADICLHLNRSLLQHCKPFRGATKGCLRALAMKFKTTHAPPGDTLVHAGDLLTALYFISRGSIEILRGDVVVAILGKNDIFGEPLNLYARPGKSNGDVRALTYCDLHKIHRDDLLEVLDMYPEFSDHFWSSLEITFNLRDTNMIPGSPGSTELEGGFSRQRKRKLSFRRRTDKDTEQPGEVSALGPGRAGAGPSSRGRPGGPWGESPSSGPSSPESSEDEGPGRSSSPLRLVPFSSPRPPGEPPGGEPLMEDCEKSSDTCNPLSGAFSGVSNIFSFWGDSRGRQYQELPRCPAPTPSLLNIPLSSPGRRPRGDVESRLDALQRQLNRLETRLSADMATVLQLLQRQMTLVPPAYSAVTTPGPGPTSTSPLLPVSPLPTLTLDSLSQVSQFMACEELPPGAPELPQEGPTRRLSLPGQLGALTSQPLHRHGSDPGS

Row | SMILES | hERG current change (%, negative = inhibition) at 1uM
1 | Cc1ccc(C(=O)Nc2nn(C)c3cccc(F)c23)cc1 | 8.68%
2 | c1ccc2c(c1)[nH]c1c(NCC3CCCO3)ncnc12 (centres unmarked) | 14.2%
3 | COc1ccccc1CNC(=O)CCS(=O)(=O)c1ccc2c(c1)CCN2C(C)=O | 20.6%
4 | Cc1cc(Br)c(OCC(=O)NN)c2c1CCC2 | 10.9%
5 | CC(=O)c1c(C)[nH]c(C(=O)COc2ccc(C#N)cc2)c1C | 0.947%
6 | CCOc1cccc2c1OC1(C)CC2NC(=O)N1c1cccc(F)c1 (centres unmarked) | 14.4%
7 | CC(=O)N(Cc1cc2cc(C)c(C)cc2n2nnnc12)CC1COCCO1 (centres unmarked) | -6.09%
8 | COc1cc(/C=C/C(=O)O)cc(S(=O)(=O)Nc2ccccc2SC)c1OC | 13.9%
9 | COc1ccc(S(=O)(=O)N2CCc3ccccc32)cc1C(=O)NC1(C)CCS(=O)(=O)C1 (centres unmarked) | 14.1%
10 | CC12CCC(C(=O)N3CCN(c4ccccc4)CC3)(CC1=O)C2(C)C (centres unmarked) | 7.53%
11 | O=C(c1cc2c(ccc3ccccc32)o1)N1CCCCC1 | 14.4%
12 | Cn1c(SCc2cc(=O)[nH]c3ccccc23)nnc1-c1ccc(Br)cc1 | 7.32%
13 | CC(=O)Oc1ccc2occ(-c3ccccc3)c2c1 | 16%
14 | Cc1ccc(C(c2nnnn2CS(=O)(=O)c2ccc(C)cc2)N2CCC(C)CC2)cc1 (centres unmarked) | 7.16%
15 | COc1ccc(/C=N/Nc2cc(N(C)C)nc(N(C)C)n2)cc1 | 3.84%
16 | O=C(O)CCCCCn1c(SCC(=O)N2CCCC2)nc2ccsc2c1=O | 13.9%
17 | COc1ccc(/C=C(\NC(=O)c2cccs2)C(=O)Nc2ccccc2C)cc1OC | 11.9%
18 | O=C(Nc1nc(-c2ccncc2)cs1)C1COc2ccccc2O1 (centres unmarked) | -6.37%
19 | Cc1ccc(-n2nc3c(N4CCC(C(=O)NCCc5ccco5)CC4)nnc(C)c3c2C)cc1 | 4.24%
20 | O=C(CSc1nnc(CNC(=O)c2cccs2)o1)Nc1ccccc1F | 10.2%
21 | COc1cc(CC(=O)OCC(=O)N2CCCCC2)cc(OC)c1OC | 12.5%
22 | O=C(NC1CCN(Cc2ccccc2)CC1)C1CCN(S(=O)(=O)c2cccc3cccnc23)CC1 | 3.33%

Row | SMILES | hERG current change (%, negative = inhibition) at 1uM
23 | COc1ccccc1NC(=O)CCc1c(C)[nH]c(=O)c(C#N)c1C | -11.5%
24 | C[C@@H]1O[C@@H](Oc2c(-c3cc(O)c(O)c(O)c3)oc3cc(O)cc(O)c3c2=O)[C@H](O)[C@H](O)[C@H]1O | -6.82%
25 | Cc1c(C(=O)Nc2ccc(S(=O)(=O)Nc3ncccn3)cc2)oc2ccc(Cl)cc12 | -11.4%
26 | COc1cc2cnc(Cl)nc2cc1OC | 10.1%
27 | COc1ccc(NC(=O)CN(C)C(=O)c2c(-c3c(F)cccc3Cl)noc2C)cc1 | 2.1%
28 | COc1ccc(NC(=O)CCC(=O)c2cccs2)cc1S(=O)(=O)Nc1ccccc1Cl | 10.7%
29 | COc1cc(/C=N/NC(=O)c2cc(C)oc2C)ccc1OCc1ccccc1 | 7.16%
30 | CC(=O)c1cccc(NS(=O)(=O)c2ccc(N/C=C\C(=O)c3ccc(C)cc3)cc2)c1 | 12.1%
31 | CN(C)S(=O)(=O)c1cccc(C(=O)Nc2ccc(Cl)cn2)c1 | 2.97%
32 | COc1ccc(NC(=O)C(=O)Nc2cccc3ccccc23)c(OC)c1 | 4.97%
33 | C#CCOCCOCCOCCNc1nc(N2CCN(C(=O)[C@H]([C@@H](C)CC)n3cc([C@@H](N)Cc4ccc(O)cc4)nn3)CC2)nc(N2CCN(C(=O)[C@H](CCCCN)n3cc([C@@H](N)CO)nn3)CC2)n1.Cl | 13.7%
34 | Cc1cc(NC(=O)CSC2=Nc3ccccc3C3=NC(Cc4ccccc4)C(=O)N23)n[nH]1 (centres unmarked) | 1.35%
35 | CC(C)(C)NC(=O)COC(=O)C1c2ccccc2Oc2ccccc21 | 8.62%
36 | Cc1c(Cl)cccc1NC(=O)C1CCN(c2cnccn2)CC1 | -0.949%
37 | COc1ccc(C(=O)c2c3ccccc3[n+]([O-])n2Cc2ccc(C(N)=O)cc2)cc1 | 11.2%
38 | CC#CCCCC(=O)Nc1cc(OC)nc(OC)n1 | -2.41%
39 | Cc1c(Cl)cccc1NC(=S)NCc1ccco1 | -0.475%
40 | CN(c1ccccc1C(=O)Nc1cccc(Cl)c1Cl)S(C)(=O)=O | 13.9%
41 | COc1ccc(S(=O)(=O)NCCOc2ccccc2)cc1OC | 3.77%
42 | CC(=O)N/C(=C/c1ccccc1)c1ccccc1 | 12.8%
43 | Cc1cc(C)cc(NC(=O)CCC(=O)Nc2nnc(C(C)C)s2)c1 | 14.3%
44 | Cc1ccc(-n2c([C@@H]3C[C@H]3c3ccccc3)n[nH]c2=S)cc1 | 18.6%

Row | SMILES | hERG current change (%, negative = inhibition) at 1uM
45 | O=C(COC(=O)C1CCN(S(=O)(=O)c2cccs2)CC1)NCc1ccc(F)cc1 | -4.52%
46 | O=C(CN1CCOCC1)NNc1c2ccccc2nc2ccccc12 | 8.09%
47 | C=CCc1cccc(/C=C/c2cc(=O)c3ccccc3[nH]2)c1O | 11.3%
48 | CCCc1nnc(NC(=O)c2c(O)c3cccc4c3n(c2=O)CCC4)s1 | -9.4%
49 | CCOC(=O)c1ccc(NC(=O)C(=O)NCCc2ccc(OC)cc2)cc1 | 11.6%
50 | Cc1ccc(Cl)cc1NC(=O)c1ccc(NC(=O)CCC(=O)O)cc1 | 4.85%
51 | COC(=O)c1sc(NC(=O)c2c(C)noc2C)nc1C | -17.3%
52 | COc1ccc(NC(=O)CSc2nc3ccccc3c(=O)n2Cc2cccs2)c(OC)c1 | 4.67%
53 | O=c1[nH]c2cc3c(cc2cc1CN(CC1CCCO1)S(=O)(=O)c1ccccc1)OCCO3 (centres unmarked) | -1.43%
54 | Cc1ccc(C)c(NC(=O)CN(C)C(=O)Cc2ccc(Cl)cc2Cl)c1 | 15.6%
55 | CSc1ccccc1NC(=O)c1ccc(Cl)s1 | 0.228%
56 | Cc1ccc(NC(=O)Nc2cccc(F)c2)nc1 | 24%
57 | CC(=O)c1c(-c2ccccc2)c2cc(Cl)ccc2[nH]c1=O | 13.7%
58 | CCCCOC(=O)C1=C(N)N2C(=O)C(C)SC2=C(C(=O)OCC)C1c1ccc(O)c(OC)c1 (centres unmarked) | 8.97%
59 | O=C(O)c1cc(-c2ccccc2Cl)n(-c2ccccc2)n1 | 11.4%
60 | CCc1cc2ccc(C)cc2nc1SCC(=O)Nc1cc(OC)c(OC)cc1C(=O)O | 8.8%
61 | CCOC(=O)Nc1ccc(N2CCOCC2)c(S(=O)(=O)N2CCOCC2)c1 | -4.79%
62 | COC(=O)[C@@]12CCCCN1[C@H](c1ccc(-c3cccc(Cl)c3)cc1)[C@H]1C(=O)N(C)C(=O)[C@H]12.O=C(O)C(F)(F)F | 8.53%
63 | COc1ccccc1-n1nnnc1S(=O)(=O)Cc1ccc(Cl)cc1 | 8.96%
64 | C=CCN1C(=O)C(CC(=O)Nc2ccc(C)cc2)SC1=Nc1c(C)n(C)n(-c2ccccc2)c1=O (centres unmarked) | 9.99%
65 | CCn1ncc(CN2CCCC(CNC(=O)c3ccc(F)cc3)C2)c1C (centres unmarked) | 1.73%
66 | COc1ccc(CNC(=O)c2ccc(NC(=O)C3=CSCCO3)cc2)cc1 | 17.6%

Row | SMILES | hERG current change (%, negative = inhibition) at 1uM
67 | CCCn1c(N)c(N(CCOC)C(=O)/C=C/c2ccc(C(=O)OC)cc2)c(=O)[nH]c1=O | 3.86%
68 | CCCC(=O)N(Cc1cccnc1)c1nc2c(OC)ccc(Cl)c2s1 | 5.79%
69 | Cc1cc(C)c(NS(=O)(=O)c2ccc3c(c2)NC(=O)CCS3)c(C)c1 | 7.9%
70 | CN(CC#CCC(c1ccccc1)c1ccccc1)C(C)(C)C.Cl | -56.4%
71 | Cc1cc(=O)[nH]c(SCC(=O)Nc2ccc(S(=O)(=O)N3CCCCC3)cc2)n1 | -0.575%
72 | CCOC(=O)c1c(C)n(C)c2ccc(O)c(CN(CC)CC)c12.Cl | 2.09%
73 | C=CCn1c(SCC(=O)NC)nnc1C12CC3CC(CC(C3)C1)C2 | 8.97%
74 | NS(=O)(=O)c1cccnc1Nc1c(Cl)cccc1Cl | 1.55%
75 | Cc1nnc(Cn2cnc3c2c(=O)n(C)c(=O)n3C)o1 | 18.7%
76 | N#C/C(=C\c1cccs1)Sc1nc2ccccc2s1 | 12.7%
77 | CSCCC(NC(=O)COc1ccccc1)C(=O)N1CCN(c2ccccc2O)CC1 (centres unmarked) | -2.64%
78 | Cc1occc1C(=O)Nc1nnc(C2CCCCC2)s1 | -3.72%
79 | CCOC(=O)N1CCN(c2cc3nccnc3cc2F)CC1 | 7.44%
80 | O=C(Nc1ccc(Cl)cc1C(F)(F)F)c1ccccc1Cl | 12.9%
81 | c1ccc(-c2nnc(CSc3ccc4c(c3)OCCO4)o2)cc1 | 1.69%
82 | CCCCc1n[nH]c2c1C(=O)CC(C)(C)C2 | 6.29%
83 | CC(C)CC(=O)NS(=O)(=O)c1ccc(N)cc1 | 13.6%
84 | CC(=O)c1cccc(OCC(=O)c2cc(C)n(-c3cc(C)on3)c2C)c1 | 3.41%
85 | CCOP(=O)(C#CC(C)(C)C)C1(O)CCCCC1 (centres unmarked) | 3.83%
86 | Cc1ccc(C(=O)NCCCc2ccccc2)c(Cl)c1 | 11.5%
